The source of these data is patent publication US20230348569A1.

Where a chain is given by its changes, count along the chain named. Where “and” joins values, the source holds several entries; their conditions need not be identical. Identical values can stand only once.

The labels stand for the following.
B1: mAb10930 (antibody)
heavy: EVQLVESGGGLVQPGRSLRLSCAASGFTFDDYAMYWVRQAPGKGLEWVSGISWNSGSIGYADSVKGRFTISRDNAKNSLYLQMNSLRAADTALYYCAKDKDWNSRGYYYYGMDVWGQGTTVTVSS[human IgG1 constant region left out here]
light: [about 100 residues left out here][about 100 residues left out here]
B2: mAb10920 (antibody)
heavy: QVQLVESGGGVVQPGRSLRLSCAASGFTFSYYGMHWVRQAPGKGLEWVAVIWYDGSNKFYADSVKGRFTISRDNSKNTLYLQMNSLRAEDTAVYYCAAARPGYYYGMDVWGQGTTVTVSS[human IgG1 constant region left out here]
light: DIQMTQSPSSLSASVGDRVTITCRASQGISNYLAWFQQKPGKAPNSLIYAASSLQRGVPSKFSGSGSGTDFTLTISSLQPEDFATYYCQQYNSYPRTFGQGTKVEIKRTVAAPSVFIFPPSDEQLKSGTASVVCLLNNFYPREAKVQWKVDNALQSGNSQESVTEQDSKDSTYSLSSTLTLSKADYEKHKVYACEVTHQGLSSPVTKSFNRGEC
B3: mAb10935 (antibody)
heavy: EVQLVESGGGLVQPGGSLRLSCAASGFTVSSNYMSWVRQAPGKGLEWVSLIYSGGSTYYADSVKGRFTISRHNSKNTLYLQMNSLRSEDTAVYYCARVPLGDYYYGMDVWGQGTTVTVSS[human IgG1 constant region left out here]
light: DIQMTQSPSSLSASVGDRVTITCQASQDINKYLNWYQQKPGKAPKLLIYDASNLETGVPSRFSGSGSGTDFTFTISSLQPEDIATYYCQQSDNLPLTFGGGTKVEIKRTVAAPSVFIFPPSDEQLKSGTASVVCLLNNFYPREAKVQWKVDNALQSGNSQESVTEQDSKDSTYSLSSTLTLSKADYEKHKVYACEVTHQGLSSPVTKSFNRGEC
B4: mAb10921 (antibody)
heavy: EVQLVESGGGLVQPGGSLRLSCAASGITVSSNYMSWVRQAPGKGLEWVSVIYSGGSTFYADSVKGRFTISRHNSKNTLYLQMNSLRAEDTAVYYCARERNFDAFDIWGQGTMVTVSS[human IgG1 constant region left out here]
light: DIQMTQSPSSVSASVGDRVTITCRASQGISSWLAWYQQKPGKAPKLLIYAASSLQSGVPSRFSGSGSGTDFTLTISSLQPEDFATYYCQQANSFPLFTFGPGTKVDIKRTVAAPSVFIFPPSDEQLKSGTASVVCLLNNFYPREAKVQWKVDNALQSGNSQESVTEQDSKDSTYSLSSTLTLSKADYEKHKVYACEVTHQGLSSPVTKSFNRGEC
B5: mAb10938 (antibody)
heavy: EVQLVESGGGLVQPGGSLRLSCAVSGFTVSSNYMSWVRQAPGKGLEWVSLIYSGGSTFYADSVKGRFTISRHNSKNTLYLQMNSLRAEDTAVYYCAREGGYSYDYNYWGQGTLVTVSS[human IgG1 constant region left out here]
light: B3 light with N30R, K31N, S65I, S91Y, L96I, G100Q, K103R, V104L

One experiment has as its target T1, SARS-COV-2-S RBD extracellular domain expressed with a C-terminal myc-myc-hexahistidine (SARS-COV-2 RBD-MMH) (SARS-CoV-2). Particulars: remark: other sources report otherwise.
As to B1, the t½ (usually the time in which the quantity being followed falls by half) was 60 s.
On to B2, for which the t½ is 24 s.
With B3, the t½ was 24 s and 54 s.

For another experiment, the target named is T1, SARS-COV-2-S RBD extracellular domain …. Particulars: remark: other sources report otherwise. The source holds these as a separate data set.
As for B1, the t½ was 42 s.
As to B4, the t½ was determined as 36 s.
B2 registered a t½ of 12 s.
As to B3, the t½ was determined as 42 s.
For B5, the t½ came to 234 s.
